Results as given in PubChem BioAssay (NCI).
Several values for one entry are separate records, joined by “and”; a condition that tells them apart may be missing. Identical values can stand only once.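 Each compound was tested at five concentrations against cells in 96-well plates for 48 hours. GI50 = concentration required for 50% inhibition of growth. TGI is the concentration that stops growth completely.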 Peptide text beside a SMILES is read from it.

The molecules below were run on NCI-H322M lung (assay: DTP human tumour cell line panel, 48 h).
Work on `CC[C@H](C)[C@@H]1NC(=O)[C@H](Cc2ccc(O)cc2)N(C)C(=O)[C@H](Cc2ccccc2)NC(=O)CN(C)C(=O)[C@@H]2CCCN2C(=O)[C@@H](Cc2ccccc2)N(C)C(=O)[C@H](CC(C)C)NC1=O` (HELM PEPTIDE1{F.[meY].I.L.[CN([C@H](Cc1ccccc1)C(=O)[*:2])[*:1]].P.[Sar]}$PEPTIDE1,PEPTIDE1,1:R1-7:R2$$$V2.0) yielded a GI50 of 0.18 µM and a TGI of 1.99 µM. For `CC(CO)(CO)Nc1ncnc2ccccc12`, the TGI was > 100 µM. `COc1cc2ccnc3c2c(c1OC)-c1ccc(=O)ccc1-3` was tested, and the GI50 was 54.3 µM and the TGI was > 100 µM. `NC1=CN(Cc2ccccc2)C2=N/C(=C\c3ccccc3)C(=O)N12` was tested, and the TGI was > 100 µM. In the case of `OCCNc1ncnc2c1ncn2C1OC(CO)C(O)C1O` (stereo not drawn), the TGI is reported as > 100 µM. `CCN(CC)CCOC(=O)CCN1CC2CCC(CC2)C1` was tested, and the TGI was > 100 µM. Work on `Cc1cc2c3ccccc3ccc2[n+]2ccccc12` yielded a GI50 of 3.38 µM and a TGI of 32.3 µM. For `O=C1/C(=C/c2ccccc2)N=C(c2ccccc2)N1C1Nc2cc3c(cc2S1)NC(N1C(=O)/C(=C/c2ccccc2)N=C1c1ccccc1)S3` (stereo not drawn), the TGI was > 100 µM. With `CC1=CC2=C(C(N)=O)C(=O)OC2(C)C(c2ccccc2)C1` (stereo not drawn) the TGI was > 100 µM. `Cc1c2cccc-2ccc2c1[nH]c1ccc(Br)cc12` was tested, and the TGI was 26.7 µM. For `COc1cc2c(cc1OC)C1CCc3ccccc3CN1CC2` (stereo not drawn), the TGI was > 100 µM. With `CC(=O)Nc1ccccc1-c1cnc2ccccc2n1` the TGI was > 100 µM. For `C/C1=C\C/C=C(\C)[C@H]2CC(CC/C(C)=C/CC1)[C@@](C)(CO)O2`, the GI50 was > 100 µM and the TGI was > 100 µM. For `COc1ccc2c(c1)CCCN1Cc3cc(OC)c(OC)cc3CC21` (stereo not drawn), the TGI was > 100 µM. With `Cc1ccc(CC2(OCCN(C)C)CCC(C(C)(C)C)CC2)cc1` (stereo not drawn) the TGI was 10.7 µM and 5.85 µM. `NC1CC(=O)c2csc(Cl)c21` (stereo not drawn) was tested, and the TGI was 32.7 µM. In the case of `Cc1nc(-c2nc(C)c(C(=O)NN(C)C)s2)sc1C(=O)NN(C)C`, the TGI is reported as > 100 µM. In the case of `CN1CCCC1=NC#N`, the TGI is reported as > 100 µM. `CC1(O)CC23CC1CCC2(C)C12CCCC(C)(C(=O)O1)C2CC3O` (stereo not drawn) was tested, and the TGI was > 100 µM. In the case of `O=C1[C@@H]2C3SC(c4ccccc43)[C@@H]2C(=O)N1c1ccccc1`, the TGI is reported as > 100 µM. In the case of `COc1cc(/C=C/c2ccc(OC(C)=O)cc2)cc(OC)c1OC`, the TGI is reported as > 100 µM. For `CN(C)CC/C(=N\Nc1ccc(Cl)c(Cl)c1)c1ccccc1`, the TGI was 15.5 µM. Work on `S=C=NCc1ccccc1` yielded a TGI of 30 µM. `COc1cc([C@@H]2c3cc4c(cc3[C@@H](NCc3ccccc3)C3COC(=O)[C@@H]32)OCO4)cc(OC)c1O` (stereo partly drawn) was tested, and the TGI was > 100 µM. For `CC1=C(C#N)C2C(=C(N)Oc3ccccc32)C(N)=N1` (stereo not drawn), the TGI was 70 µM. For `COc1ccc2oc(=O)c3c(c2c1C)OC(C)(C)C=C3`, the TGI was > 100 µM. With `Cc1ccc2c(Nc3cccc(Cl)c3F)ncc(NC(=O)c3csc4c(N)ncnc34)c2c1` the GI50 was > 100 µM and the TGI was > 100 µM. For `Cn1c(=O)c2c(nc(N)n2C2OC(CO)C(O)C2O)n(C)c1=O` (stereo not drawn), the TGI was > 100 µM. With `CC[C@H](C)C1=C(O)[N@+]2([O-])Oc3ccc(-c4c(O)c(O)c(-c5ccc(OC(C)=O)cc5)c(OC(C)=O)c4OC(C)=O)cc3O[C@]2([C@@H](C)CC)C(=O)N1O` the TGI was > 50 µM. `COc1cccc(-n2ncc3c(N/N=C/c4ccc(S(C)(=O)=O)cc4)ncnc32)c1` was tested, and the GI50 was 12.8 µM and the TGI was > 25 µM. With `CN(C)c1nc(=NCc2cccs2)ss1` the TGI was > 10 µM. With `Cc1cccc(NC(=O)CCl)c1` the TGI was > 10 µM. `CCOC(=O)Cn1c(C)c(/C=N/NC(=O)c2cc3c(ccc4ccccc43)o2)c2ccccc21` showed a GI50 of 0.941 µM and a TGI of 16.8 µM. For `CC(=O)C1C(=O)C(=O)N(c2ccccc2N2C(=O)C(=O)C(C(C)=O)C2=O)C1=O` (stereo not drawn), the TGI was > 100 µM. `CC(C)(C)OC(=O)NC1CCC[C@H]1O` (stereo partly drawn) was tested, and the TGI was > 100 µM. `O=C(O)C1=NNC(C(=O)O)=NN1` was tested, and the TGI was > 100 µM. `Nc1nc(Cl)cc(NCC2(CO)CCC(O)C2)n1` (stereo not drawn) was tested, and the TGI was > 100 µM. For `Cc1ccccc1-c1c(N)nc(N)nc1C(=O)Nc1nccs1`, the TGI was > 100 µM. With `CCN(C(=O)CCl)C(C)(C)C(SSSC(c1ccc(Cl)cc1)C(C)(C)N(CC)C(=O)CCl)c1ccc(Cl)cc1` (stereo not drawn) the GI50 was 13.2 µM and the TGI was 26.5 µM. `CCCCCCCCCCCC[n+]1ccccc1` showed a GI50 of 9.89 µM and a TGI of 22.2 µM. With `O=C1c2ccccc2-c2n[nH]c3cccc1c23` the GI50 was 20.3 µM and the TGI was > 100 µM. With `O=C(NC(=S)NNC(=S)NNc1ccccc1)c1ccccc1` the GI50 was 14.8 µM and the TGI was > 100 µM. For `CC1(Br)C(=O)NC(=O)N(C2CC(N=[N+]=[N-])C(CO)O2)C1N=[N+]=[N-]` (stereo not drawn), the TGI was > 100 µM. In the case of `O=C(Nc1nc2ccccc2n1Cc1ccc(Cl)cc1)NC12CC3CC(CC(C3)C1)C2`, the TGI is reported as > 100 µM. With `COc1ccc([C@H]2C=C(c3cc(F)c(Cl)cc3Cl)NC(=S)N2)cc1` the TGI was > 100 µM. With `O=C(O)Cc1cccc2c1OC(c1ccccc1)C(C(=O)c1ccccc1)C2=O` (stereo not drawn) the TGI was > 100 µM. `CN(C)C(=O)c1cc2cnc(Nc3ccc(-c4csc5c(=O)cc(N6CCNCC6)oc45)cc3)nc2n1C1CCCC1` was tested, and the GI50 was 1.04 µM and the TGI was 7.91 µM. Molecule `CCCCCCCCCC1C(C)c2c([nH]c3ccccc23)C2C(=O)N(c3ccccc3)C(=O)C21` (stereo not drawn) has a TGI of 30.7 µM. With `C[C@H]1CCCCC[C@@H]2CC(=O)CC2C(=O)CCC(=O)O1` (stereo partly drawn) the TGI was > 100 µM. `O=C(NCCNCCNCCNC(=O)c1cc(-c2ccccc2)nc2ccccc12)c1cc(-c2ccccc2)nc2ccccc12` was tested, and the TGI was 14.5 µM. With `CN1C(=O)[C@@H]2N(CSC2(C)C)C1=S` the TGI was > 100 µM.
